Data as given in PubChem BioAssay AID904 (National Center for Advancing Translational Sciences (NCATS), 2007).
The campaign covered roughly 55,000 compounds. About 530 (0.96%) were called active. Inconclusive means that the source gave no clear call. Such entries were picked first, then a sample of the others. The call rests on the fitted dose curve; in most records, active means well fitted cell-killing curve with a large enough effect; inconclusive means small, poorly fitted or top-dose-only effect; inactive means no such curve, though single readings can be large or run the other way. Potencies beside an inconclusive call are fits to weak or partial responses and may not hold up.

Assay: qHTS Screen for Compounds that Selectively Target Cancer Cells with p53 Mutations: Cytotoxicity of p53 Null Cells at the Nonpermissive Temperature; further: nearly all actives have a fitted effect of over 50% in size;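 on activity, negative = cell killing: 0% = DMSO only and -100% = full killing by 100 µM tamoxifen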
Settings: H1299 p53-null (neo) cells, 39C, ATPlite viability, 24 h; activity, negative = cell killing: at 46.1 µM (top of the series)
Method in brief: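 Following overnight plating at 37C (600 cells/well), H1299-neo or H1299-p53A138V cells are dosed up to 46 uM. Incubation lasts 24 hr at 39C before ATP detection.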
Potency means the concentration at half of the fitted maximal effect; tags describe the fitted curve by direction and shape.

Question: For `Cc1ccc(-c2nnc(SCc3ccccc3C#N)o2)cc1`, which Potency is on record?
Answer: inconclusive: 0.126 µM [cytotoxic, partial curve, poor fit]

Question: For `CCOC(=O)c1cccc(NC(=O)c2ccc3c(Cl)c4c(nc3c2)CCC4)c1`, which Potency is on record?
Answer: active: 0.398 µM

Question: Which Potency does the source give for `O=C(NCCCN1CCN(c2ccc(F)cc2)CC1)Nc1ccc(Cl)cc1` here?
Answer: inconclusive: 15.8 µM [cytotoxic, single point]

Question: With `COc1ccc(C2c3c(-c4c(C)cc(C)cc4O)n[nH]c3C(=O)N2Cc2ccco2)cc1` (centres undefined) as the molecule, how does the Potency read?
Answer: inconclusive: 31.6 µM [cytotoxic, single point]

Question: With `CCOc1ccc2nc(C)cc(Nc3ccccc3OCC)c2c1` as the molecule, how does the Potency read?
Answer: inconclusive: 6.31 µM [cytotoxic, single point]

Question: Which Potency does the source give for `O=C(CN1C(=O)COc2ccc(S(=O)(=O)N3CCOCC3)cc21)NCc1ccc(F)cc1` here?
Answer: inconclusive: 0.0282 µM [cytotoxic, full curve, poor fit]

Question: Which Potency does the source give for `CCn1cc2nc(SCC(=O)Nc3ccc(C)cc3C)n(Cc3ccc(C)cc3)c(=O)c2n1` here?
Answer: inconclusive: 20 µM [cytotoxic, single point]

Question: Which Potency does the source give for `CCOC(=O)CNS(=O)(=O)c1cc(-c2nnc(Nc3cccc(O)c3)c3ccccc23)ccc1C` here?
Answer: inconclusive: 31.6 µM [cytotoxic, single point]

Question: Which Potency does the source give for `COC(=O)c1ccccc1NC(=O)c1cc2nc(-c3ccc(OC)cc3)cc(C(F)(F)F)n2n1` here?
Answer: inconclusive: 12.6 µM [cytotoxic, partial curve, poor fit]

Question: With `CCn1cc(CNC(=O)c2cc(-c3ccc(C)c(C)c3)nc3ccccc23)c(C)n1` as the molecule, how does the Potency read?
Answer: inconclusive: 20 µM [cytotoxic, partial curve]

Question: With `COc1ccc(-c2noc(CSc3nnc(-c4ccncc4)n3-c3ccc(C)cc3)n2)cc1OC` as the molecule, how does the Potency read?
Answer: inconclusive: 0.631 µM [cytotoxic, full curve, poor fit]

Question: Which “activity, negative = cell killing” value does the source give for `O=C(NCCc1csc2nc(-c3ccc(F)cc3)nn12)c1cccc(C(F)(F)F)c1` here?
Answer: inactive: -13%

Question: For `CCc1ccc(Oc2c(C(F)(F)F)oc3c(CN4CCN(C)CC4)c(O)ccc3c2=O)cc1`, which Potency is on record?
Answer: inconclusive: 2.51 µM [cytotoxic, partial curve, poor fit]

Question: Which “activity, negative = cell killing” value does the source give for `CCOc1ccccc1NC(=O)c1c(NC(=O)c2ccccc2)sc2c1CCCC2` here?
Answer: inactive: 18%

Question: With `CCOc1cccc(CC(=O)N2CCc3c([nH]c4ccccc34)C2c2ccc(Cl)cc2)c1OCC` (centres undefined) as the molecule, how does the Potency read?
Answer: inconclusive: 20 µM [cytotoxic, partial curve, poor fit]

Question: With `Cc1ccc(NC(=O)/C=C/c2ccc(C)o2)c(C)c1` as the molecule, how does the “activity, negative = cell killing” value read?
Answer: inactive: -23.8%

Question: For `COc1ccc(CCNC(=O)c2ccc3c(c2)N(Cc2ccccc2F)C(=O)c2ccccc2S3(=O)=O)cc1OC`, which Potency is on record?
Answer: inconclusive: 1.58 µM [cytotoxic, full curve, poor fit]

Question: With `CC(=O)c1ccc(NC(=O)CSc2nnc3ccc(-c4ccc(Cl)cc4)nn23)cc1` as the molecule, how does the Potency read?
Answer: inconclusive: 0.112 µM [cytotoxic, full curve, poor fit]

Question: Which Potency does the source give for `COc1ccc(-c2cc(C(F)(F)F)nc(S(=O)(=O)CCCC(=O)Nc3cccc(O)c3)n2)cc1OC` here?
Answer: inconclusive: 31.6 µM [cytotoxic, single point]

Question: For `CCC(=O)Oc1ccc(/C=C(\C#N)c2nc3ccccc3[nH]2)cc1OC`, which Potency is on record?
Answer: inconclusive: 31.6 µM [cytotoxic, single point]

Question: With `Cc1ccc(CNC(=O)c2ccc(Cn3c(=O)c4ccccc4n(CC(=O)Nc4ccc(C)cc4C)c3=O)cc2)cc1` as the molecule, how does the Potency read?
Answer: inconclusive: 31.6 µM [cytotoxic, single point]

Question: With `COc1ccc(SCc2cc(=O)c3cc(Cl)ccc3[nH]2)cc1` as the molecule, how does the Potency read?
Answer: inconclusive: 0.0063 µM [cytotoxic, full curve, poor fit]

Question: For `CCCCNc1nc(Oc2ccc(OCC)nn2)nc(N2CCOCC2)n1`, which Potency is on record?
Answer: inconclusive: 15.8 µM [cytotoxic, single point]

Question: For `CCn1c(C(=O)NCCc2ccc(OC)c(OC)c2)cc2sc(Cl)cc21`, which “activity, negative = cell killing” value is on record?
Answer: inactive: 62.7%

Question: With `COc1cccc(C(=O)Nc2cccc(C(=O)OCc3cc(=O)n4nc(C5CC5)sc4n3)c2)c1` as the molecule, how does the Potency read?
Answer: inconclusive: 0.0079 µM [cytotoxic, full curve, poor fit]

Question: For `CCOc1ccc(NC(=O)c2ccc(NC(=O)N3CCSc4ncccc43)cc2)cc1`, which Potency is on record?
Answer: inconclusive: 14.1 µM [cytotoxic, partial curve]

Question: Which Potency does the source give for `Fc1ccc(-c2nnc(-c3ccc(Cl)cc3Cl)o2)cc1` here?
Answer: active: 11.2 µM

Question: With `CCc1nnc2c3ccccc3nc(Nc3ccc(C(C)=O)cc3)n12` as the molecule, how does the Potency read?
Answer: inconclusive: 22.4 µM [cytotoxic, single point]

Question: For `CCCCN(C)CCCNC(=O)C1CCN(c2nc3ccc(CC)cc3s2)CC1`, which Potency is on record?
Answer: active: 12.6 µM

Question: Which Potency does the source give for `COC(=O)c1c(-c2ccc(Cl)cc2)noc1N1CCN(c2ccc(C)cc2C)CC1` here?
Answer: inconclusive: 0.005 µM [cytotoxic, full curve]

Question: Which Potency does the source give for `CC(=O)c1ccc(NC(=O)CCSc2nc(-c3ccco3)cc(C(F)(F)F)n2)cc1` here?
Answer: inconclusive: 0.631 µM [cytotoxic, full curve]

Question: With `CC(=O)c1ccc(S(=O)(=O)Nc2cccc(-c3ccc(N4CCCCCC4)nn3)c2)cc1` as the molecule, how does the Potency read?
Answer: inconclusive: 14.1 µM [cytotoxic, partial curve]

Question: With `CCCNc1c(NC(=O)c2ccc(OCCC)cc2)c(=O)oc2ccccc12` as the molecule, how does the “activity, negative = cell killing” value read?
Answer: inactive: 9.53%

Question: With `CN(C)c1ccc(C(CNC(=O)c2ccc(C(C)(C)C)cc2)N2CCOCC2)cc1` (centres undefined) as the molecule, how does the Potency read?
Answer: inconclusive: 0.631 µM [cytotoxic, single point]

Question: With `COC(=O)c1cccc(-n2c(CCC(=O)O)ccc2-c2ccc(OC)cc2)c1` as the molecule, how does the Potency read?
Answer: inconclusive: 0.199 µM [cytotoxic, full curve, poor fit]

Question: With `CCOC(=O)C(CC)Sc1ncnc2nc[nH]c12` (centres undefined) as the molecule, how does the “activity, negative = cell killing” value read?
Answer: inactive: 31.2%

Question: With `O=C1CN(C(=O)Cc2ccc(F)cc2)C(c2ccccc2)c2cc(Cl)ccc2N1` (centres undefined) as the molecule, how does the “activity, negative = cell killing” value read?
Answer: inactive: 8.7%

Question: With `CC(=O)N1CCN(c2csc3ccc(F)cc3c2=O)CC1` as the molecule, how does the Potency read?
Answer: inconclusive: 0.0794 µM [cytotoxic, full curve, poor fit]

Question: For `Cc1ccc(C(=O)Nc2cccc(-c3nc4cccnc4s3)c2C)cc1`, which Potency is on record?
Answer: inconclusive: 0.126 µM [cytotoxic, full curve, poor fit]
